This passage reports z-score results from PubChem BioAssay AID488969 (Vanderbilt High Throughput Screening Facility, 2010).

SMILES strings stand for the structures. Whole data set: some 110,000 compounds, median “z-score” near -0.1, cut for the highest 2% near 2. This is one part of the list. Activity calls are given as the source filed them.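 How the source made its calls: active means z-score in the third read window above 3 or below -3; inactive means the rest.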 Residues, ends and D or L forms follow the SMILES beside them. *: point of attachment. Boc = CC(C)(C)OC(=O)*

The experiment has as its target Metabotropic glutamate receptor 8 (Rattus norvegicus) (UniProt P70579). Description: mGluR8 Gi/Go-coupled signaling modulation – cell-based, rat, thallium flux, HTS, primary screen (AID 488969). Conditions: HEK293 rat mGluR8, GIRK (G protein-gated inwardly rectifying potassium channel) thallium flux, FluoZin2; at 10 µM; stronger effect = higher value; submaximal glutamate (EC20) added with thallium.
Chain of UniProt P70579 (P70579 whole entry, looked up): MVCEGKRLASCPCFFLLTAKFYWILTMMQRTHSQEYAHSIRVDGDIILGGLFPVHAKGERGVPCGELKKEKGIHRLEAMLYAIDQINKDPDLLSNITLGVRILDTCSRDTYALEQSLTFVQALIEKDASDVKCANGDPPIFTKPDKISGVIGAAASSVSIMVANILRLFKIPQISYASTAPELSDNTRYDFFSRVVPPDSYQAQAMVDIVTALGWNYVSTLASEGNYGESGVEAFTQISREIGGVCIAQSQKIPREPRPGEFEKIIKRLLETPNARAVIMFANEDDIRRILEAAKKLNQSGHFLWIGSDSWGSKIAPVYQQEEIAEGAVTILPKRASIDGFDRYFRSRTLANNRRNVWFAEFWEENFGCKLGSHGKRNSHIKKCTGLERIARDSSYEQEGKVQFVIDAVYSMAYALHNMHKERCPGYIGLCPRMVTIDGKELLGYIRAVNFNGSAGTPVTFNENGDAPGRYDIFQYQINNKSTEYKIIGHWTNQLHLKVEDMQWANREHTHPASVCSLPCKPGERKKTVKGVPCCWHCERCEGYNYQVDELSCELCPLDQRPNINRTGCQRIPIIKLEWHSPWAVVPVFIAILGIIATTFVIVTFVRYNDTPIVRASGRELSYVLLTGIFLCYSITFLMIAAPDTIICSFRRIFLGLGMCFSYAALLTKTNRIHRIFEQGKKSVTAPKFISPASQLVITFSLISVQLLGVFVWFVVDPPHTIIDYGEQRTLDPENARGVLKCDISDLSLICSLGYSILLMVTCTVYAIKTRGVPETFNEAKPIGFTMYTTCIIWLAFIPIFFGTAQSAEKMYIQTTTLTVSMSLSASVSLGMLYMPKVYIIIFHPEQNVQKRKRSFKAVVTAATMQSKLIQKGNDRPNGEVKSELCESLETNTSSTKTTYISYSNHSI
Regarding `N#Cc1cc(-c2ccccc2)oc1NC(=O)c1ccccc1`, the z-score is -0.134.

In the case of `Cc1ccc(/C=N/n2cnc3sc4c(c3c2=O)CCCC4)o1`, the z-score is -0.367.

With `CCS(=O)(=O)N1CCN(C(=O)C(c2ccccc2)c2ccccc2)CC1`, the z-score is -0.138.

On to `O=C(c1ccc2c(c1)OCO2)N1CCN(c2ccccc2F)CC1`, for which the z-score was 0.469.

Molecule `O=C(Nc1nc(-c2cc(Cl)sc2Cl)cs1)c1ccc(Br)s1` registered a z-score of 0.0927.

Regarding `Cc1cc(N2CCN(C)CC2)n2cc(-c3ccc(F)cc3)nc2n1`, the z-score was found to be 0.0487.

Regarding `COC(=O)CNC(=O)CSc1nnc(-c2ccc(OC)cc2)n1CC(C)C`, the z-score is -0.244.

As to `COc1ccc(C)cc1S(=O)(=O)NC1CCCCC1C` (centres undefined), the z-score was -0.438.

Consider `Cc1ccc2nc(C3CCCN(C(=O)NCc4ccccc4)C3)[nH]c2c1` (centres undefined), for which the z-score was -0.131.

Consider `O=C(CC1SC(=Nc2ccccc2)N(Cc2ccccn2)C1=O)Nc1cccc(Cl)c1` (centres undefined), for which the z-score turned out to be 1.56.

`CCOC(=O)c1cc(CC)sc1NC(=O)c1ccc(N2C(=O)CCC2=O)cc1` registered a z-score of -0.383.

The molecule `CCOc1ccc(N(C(C)C(=O)NC(C)CC)S(C)(=O)=O)cc1` (centres undefined) registered a z-score of -9.49e-05.

Regarding `O=C(Nc1ccc(Cl)cc1Cl)C1CCC(=O)N1Cc1ccccc1Cl` (centres undefined), the z-score was 0.652.

`CC[n+]1c(/C=C/Nc2ccccc2)sc2ccccc21` returned a z-score of 0.608.

In turn, `Nc1[nH]ncc1C(=O)Nc1cccc(C(F)(F)F)c1` displayed a z-score of -1.87.

Molecule `CCOC(=O)c1c(NC(=O)CSc2nnc(C)s2)sc2c1CCN(C)C2` gave a z-score of -0.353.

In turn, `O=C(NCc1ccco1)C1CCN(c2nc3ccccc3n2Cc2ccccc2F)CC1` came in with a z-score of -0.777.

In the case of `O=C1CCCC2=C1C(c1ccccc1O)C1=C(CCCC1=O)O2`, the z-score is -0.183.

The molecule `O=C(Nc1ccc(F)cc1F)c1cc(-c2ccco2)on1` came in with a z-score of 0.379.

In the case of `CCc1c(C)nc(SCC(=O)Nc2cccc(Br)c2)[nH]c1=O`, the z-score was -0.299.

In turn, `O=C(CSc1nnc(-c2ccccc2)n1Cc1ccccc1)NC1CC1` gave a z-score of -0.206.

As to `O=C(c1cccnc1)N1CCN(Cc2ccc3c(c2)OCO3)CC1`, the z-score came out at 0.11.

For `O=C(CN1C(=O)c2cccc3cccc1c23)NCc1ccncc1`, the z-score is 0.16.

The molecule `CCOC(=O)CNS(=O)(=O)c1ccc(S(=O)(=O)N2CCCC2)cc1` yielded a z-score of -0.0148.

As for `O=C(COC(=O)COc1ccc(Cl)cc1)NC1CCCCC1`, the z-score is -0.315.

`CCN(CC)C(=O)CN(c1ccc(F)c(Cl)c1)S(C)(=O)=O` yielded a z-score of -0.175.

For `CC(C)OC(=O)CSc1nnc(-c2cnccn2)n1C`, the z-score was found to be 0.0117.

In turn, `O=C1c2ccccc2C(=O)c2c1oc(C(F)(F)F)c2C(=O)c1ccccc1` yielded a z-score of 0.336.

In turn, `O=C(Nc1ccc2nc(-c3cccnc3)[nH]c2c1)c1ccccc1F` displayed a z-score of -0.245.

For `COc1ccc(N2CCN(C(=O)c3ccc(C)cc3Cl)CC2)cc1`, the z-score was determined as 0.566.

`COc1ccc(Cn2nnnc2C(c2cccs2)N2CCCCCC2)cc1` (centres undefined) came in with a z-score of -0.109.

For the molecule `COc1ccc(C2=Nn3c(nnc3-c3ccccc3)SC2)cc1OC`, the z-score is -0.248.

As for `CC(=O)Nc1ccc(OC(=O)c2cc3ccccc3oc2=O)cc1`, the z-score was -0.191.

Regarding `O=C(Nc1ccc(F)c(F)c1)c1ccccc1-c1ccccc1`, the z-score was -0.352.

`O=S(=O)(c1cc(Cl)ccc1Br)N1CCOCC1` yielded a z-score of 0.587.

Regarding `CCOc1ccccc1OCCOc1ccc(F)cc1`, the z-score is -0.0385.

For the molecule `CSCCC(NC(=O)OC(C)(C)C)C(=O)NC(CC(C)C)C(N)=O` (stereo not drawn) (Boc-Met-Leu-NH2; configuration not given here), the z-score was 0.917.

Molecule `Cc1ccc(C(=O)Cn2nnc3c(sc4nc5c(c(-c6ccccc6)c43)CCC5)c2=O)cc1` gave a z-score of -0.285.

The molecule `CC(C)N(C(=O)CSc1nc2ccccc2n1Cc1ccc(F)cc1)C(C)C` had a z-score of 0.19.

As for `O=C(NNC(=S)Nc1cccc2ccccc12)c1cccc(Br)c1`, the z-score was active: 13.9.

`O=C(c1ccccc1)N1CCN(C(=O)c2ccccc2)C1c1ccccc1` came in with a z-score of -0.731.

Regarding `O=C(Nc1ccccc1)c1ccc(NCCN2CCOCC2)c(S(=O)(=O)N2CCOCC2)c1`, the z-score is -0.275.

In the case of `O=C(C1CCN(S(=O)(=O)c2cccc3cccnc23)CC1)N1CCN(c2ccc(Cl)cc2)CC1`, the z-score was -1.57.

`CCCC/C(O)=C1\C(=O)CC(C)(C)CC1=Nc1ccccc1OC` displayed a z-score of -0.872.

In turn, `CCC1CCCCN1CCNS(=O)(=O)c1ccc2c(c1)oc(=O)n2C` (centres undefined) yielded a z-score of 0.0475.

The molecule `COc1ccc(Nc2ncnc3ccccc23)c(OC)c1` yielded a z-score of -0.192.

On to `Cn1cccc1CC(=O)NNC(=S)Nc1ccc(Cl)cc1`, for which the z-score is -0.0587.

Consider `CCOC(=O)C1CCN(C(=O)c2ccc3snnc3c2)CC1`, for which the z-score amounted to 0.612.

Turning to `CCCCn1c(-c2ccco2)n[nH]c1=S`, the z-score stood at 0.805.

In the case of `CSc1nc(=NC(C)=O)ss1`, the z-score amounted to 0.199.

As for `COc1cc(OC)c(OC)cc1/C=N/NC(=O)c1cc(-c2cccn2C)n[nH]1`, the z-score is -0.38.

As to `COC(=O)Cc1c(C)nc2nc(NCc3cccc([N+](=O)[O-])c3)[nH]n2c1=O`, the z-score was -0.123.

The molecule `C/C(=N\NC(=O)c1cccc(C)c1)c1cccc(NC(=O)c2ccco2)c1` displayed a z-score of -0.159.

With `O=C(NCCN1C(=O)S/C(=C\c2cccs2)C1=O)[C@H](Cc1ccccc1)N1C(=O)c2ccccc2C1=O`, the z-score is -0.134.

For the molecule `O=C(COc1ccc(Cl)cc1)N1CCN(S(=O)(=O)c2ccc(Cl)cc2)CC1`, the z-score was -0.0869.

For `CC1(C)Cc2ccccc2/C(=C/C(=O)N2CCCCCC2)N1`, the z-score was -0.0953.

Consider `Cc1ccc(C(=O)N2CCN(Cc3ccc4c(c3)OCO4)CC2)o1`, for which the z-score was -0.67.

As for `Cc1cc(C)c(S(=O)(=O)/N=C2\C=CC(=O)C(Cl)=C2)c(C)c1`, the z-score is -0.429.

As for `Cc1ccc(NS(=O)(=O)N(C)C)cc1`, the z-score is -0.0604.

On to `Cc1nn(Cc2ccc([N+](=O)[O-])cc2)c(=O)n1N(C)c1ncc(C(F)(F)F)cc1Cl`, for which the z-score is -0.0238.

Take `CCN(CC(=O)NCc1cccs1)c1ccc(S(=O)(=O)N2CCOCC2)cn1`: the z-score is -0.111.

The molecule `O=C(Nc1cccc(C(F)(F)F)c1)c1n[nH]c(Cn2cncn2)n1` returned a z-score of -0.531.

`COc1ccc(/C=N/NC(=O)c2nc(Cl)c(Cl)c(N)c2Cl)cc1COc1ccccc1F` displayed a z-score of -0.375.

On to `O=C(NCc1cccs1)c1ccc([N+](=O)[O-])cc1`, for which the z-score was -0.113.

For `O=C(NCCN1CCN(c2ccccc2)CC1)C1CCN(S(=O)(=O)c2cccs2)CC1`, the z-score came out at 0.198.

As for `O=C(NC1CCCCC1)N1CCc2ccccc21`, the z-score stood at 0.225.

In turn, `CC(Oc1ccccc1)C(=O)Nc1cccc(F)c1` (centres undefined) showed a z-score of 1.19.

For the molecule `O=C(Cn1nnc(-c2ccccc2-n2cnnn2)n1)c1ccccc1`, the z-score is 0.414.

Take `CC(C)(C)OC(=O)COc1cc(O)c2c(=O)cc(-c3ccccc3)oc2c1`: the z-score is active: 4.76.

`CCOC(=O)C1=C(C)N(c2ccccc2)C(=O)NC1c1cccc([N+](=O)[O-])c1` (centres undefined) yielded a z-score of 0.239.

On to `O=C(NCCC1=CCCCC1)C1CCN(C(=O)Nc2ccccc2)CC1`, for which the z-score is -0.194.

`CCOC(=O)CC(=O)CSc1nc(-c2cccnc2)ccc1C#N` gave a z-score of -0.111.

Molecule `COc1ccc2c(c1)nc(SCC(=O)c1cccs1)n2C` registered a z-score of 0.331.

As to `COc1cc(/C=N/n2cnnc2)ccc1OCc1ccccc1`, the z-score was -0.183.

On to `COc1ccc(C(CNC(=O)c2cccc(N(C)C)c2)N2CCCC2)cc1` (centres undefined), for which the z-score is 0.0976.

As for `O=C1CCC([N+](=O)[O-])C(c2cccc(Br)c2)N1` (centres undefined), the z-score is -0.329.

As to `O=C(Nc1ccc(Cl)cc1)Nc1ccc(N2CCCC2)c(S(=O)(=O)Nc2ccccc2Cl)c1`, the z-score is -0.172.

Regarding `COc1ccc(NC(=O)c2oc3cc(C)c(C)cc3c2C)c(OC)c1`, the z-score was -0.322.

`CN(C)c1ccc(NC(=O)CC2NCCNC2=O)cc1` (centres undefined) returned a z-score of 1.1.

As for `O=C(COc1cccc2ccccc12)N1CCN(c2ccccc2)CC1`, the z-score turned out to be 0.553.

Take `COc1ccc(NC(=O)CCN2CCN(S(=O)(=O)c3cc(Cl)ccc3Cl)CC2)cc1`: the z-score was -0.0322.

Take `FC(F)(F)c1cnc(/C=C/Nc2ccccc2Cl)c(Cl)c1`: the z-score is -0.0309.

Take `Cc1cccc(NC(=O)CN2C(=S)NC(C)(C)CC2C)c1` (centres undefined): the z-score was -0.0541.

For the molecule `COc1ccc(CCNC(=O)c2ccc(CNS(=O)(=O)c3ccccc3)cc2)cc1OC`, the z-score was determined as 0.0244.

With `CC(C)NC(=O)CSc1nnc(C2CC2)n1-c1ccccc1`, the z-score worked out at 0.0182.

Consider `COc1ccc(NC(=O)N2Cc3ccccc3CC2C(=O)NC(C)(C)C)cc1` (centres undefined), for which the z-score amounted to 0.00246.

`CN(C)CCCNCCNC(=O)/C=N\O` came in with a z-score of -0.494.

`Cc1ccc2nc(-c3ccc(NC(=S)NC(=O)C(C)C)cc3)sc2c1` had a z-score of -0.127.

With `O=C(Nc1ccc(C(=O)Oc2ccccc2)c(O)c1)c1ccco1`, the z-score worked out at 1.21.

Take `Cc1ccc(C(=O)NCCN2CCCC2)cc1`: the z-score worked out at 0.286.

The molecule `CCCN1CCN(C(c2cc3cc4c(cc3[nH]c2=O)OCO4)c2nnnn2C(C)(C)C)CC1` (centres undefined) had a z-score of 0.00613.

The molecule `CCc1c(C(=O)Nc2nnc(C3CC3)s2)csc1C` yielded a z-score of 1.09.

The molecule `COC(=O)C1CCN(C(=O)COC(=O)[C@@H]2CC(O)CN2S(=O)(=O)c2ccc3c(c2)OCCO3)CC1` (some centres undefined) yielded a z-score of 1.01.

In turn, `Cc1sc2nc(CSc3ccccc3)nc(N3CCOCC3)c2c1C` came in with a z-score of -0.132.

Consider `O=C(CN1N=C(c2ccc(Cl)cc2)CCC1=O)NCCN1CCc2ccccc2C1`, for which the z-score amounted to 0.242.

For the molecule `O=C(c1ccccc1)N1N=C(c2ccccc2)CC1c1ccccc1[N+](=O)[O-]` (centres undefined), the z-score came to 0.877.

`COc1c2ccc(C(=O)NCc3cc(C(F)(F)F)cc(C(F)(F)F)c3)cc2nn1C` showed a z-score of -0.0572.

With `CCOC(=O)c1sc(NC(=S)NC(=O)c2ccccc2)c(C(=O)OCC)c1C`, the z-score was determined as 0.582.

In turn, `CC(C)c1nc(N2CCN(C(=O)c3ccccc3)CC2)c(C#N)c2c1COC(C)(C)C2` displayed a z-score of 0.413.

Consider `CS(=O)(=O)N(CC(=O)N1CCN(c2cccc(Cl)c2)CC1)c1ccccc1`, for which the z-score is 0.537.

With `O=C(CC1SC(=NC2CCCCC2)NC1=O)Nc1ccccc1` (centres undefined), the z-score was -0.0601.

Molecule `C=CCn1c(=O)n(CCC#N)c(=O)n(CCC#N)c1=O` showed a z-score of -0.0814.

Turning to `CC1=C(C(=O)Nc2ccccc2)C(c2ccc(C)o2)n2c(s/c(=C\c3ccco3)c2=O)=N1` (centres undefined), the z-score was -0.299.

Molecule `CC(=O)NS(=O)(=O)c1ccc(NC(=O)c2ccc(Br)o2)cc1` had a z-score of 0.0733.

In turn, `CC1(C)CC2CC(C)(CN2C(=O)c2cccs2)C1` (centres undefined) had a z-score of -0.148.

`CCOc1ccc(NC(=O)c2ccccc2NS(C)(=O)=O)cc1` had a z-score of -0.756.

`Cc1ccc(Cl)cc1-n1c(=O)cc(N2CCN(C(=O)c3ccco3)CC2)[nH]c1=O`: the z-score worked out at 0.259.

With `Cc1cc(-c2csc(N)n2)c(C)n1CCc1ccccc1`, the z-score is 0.549.

`O=C1OC(N2CCN(C(=O)c3ccco3)CC2)c2ccccc21` (centres undefined) registered a z-score of 0.502.
